The campaign covered roughly 310,000 compounds. About 14,000 (4.5%) showed an effect of 50% or more. Effects have a minus sign here. The list shows a part of the results.
Target: human ether-à-go-go-related gene (hERG) potassium channel (human, UniProt Q12809)
Assay: primary screen, population patch clamp on CHO cells stably expressing hERG
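Note: peak tail current of the secondary pulse compared with the same well before compound.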

Sequence of human ether-à-go-go-related gene (hERG) potassium channel (Q12809 whole entry, looked up): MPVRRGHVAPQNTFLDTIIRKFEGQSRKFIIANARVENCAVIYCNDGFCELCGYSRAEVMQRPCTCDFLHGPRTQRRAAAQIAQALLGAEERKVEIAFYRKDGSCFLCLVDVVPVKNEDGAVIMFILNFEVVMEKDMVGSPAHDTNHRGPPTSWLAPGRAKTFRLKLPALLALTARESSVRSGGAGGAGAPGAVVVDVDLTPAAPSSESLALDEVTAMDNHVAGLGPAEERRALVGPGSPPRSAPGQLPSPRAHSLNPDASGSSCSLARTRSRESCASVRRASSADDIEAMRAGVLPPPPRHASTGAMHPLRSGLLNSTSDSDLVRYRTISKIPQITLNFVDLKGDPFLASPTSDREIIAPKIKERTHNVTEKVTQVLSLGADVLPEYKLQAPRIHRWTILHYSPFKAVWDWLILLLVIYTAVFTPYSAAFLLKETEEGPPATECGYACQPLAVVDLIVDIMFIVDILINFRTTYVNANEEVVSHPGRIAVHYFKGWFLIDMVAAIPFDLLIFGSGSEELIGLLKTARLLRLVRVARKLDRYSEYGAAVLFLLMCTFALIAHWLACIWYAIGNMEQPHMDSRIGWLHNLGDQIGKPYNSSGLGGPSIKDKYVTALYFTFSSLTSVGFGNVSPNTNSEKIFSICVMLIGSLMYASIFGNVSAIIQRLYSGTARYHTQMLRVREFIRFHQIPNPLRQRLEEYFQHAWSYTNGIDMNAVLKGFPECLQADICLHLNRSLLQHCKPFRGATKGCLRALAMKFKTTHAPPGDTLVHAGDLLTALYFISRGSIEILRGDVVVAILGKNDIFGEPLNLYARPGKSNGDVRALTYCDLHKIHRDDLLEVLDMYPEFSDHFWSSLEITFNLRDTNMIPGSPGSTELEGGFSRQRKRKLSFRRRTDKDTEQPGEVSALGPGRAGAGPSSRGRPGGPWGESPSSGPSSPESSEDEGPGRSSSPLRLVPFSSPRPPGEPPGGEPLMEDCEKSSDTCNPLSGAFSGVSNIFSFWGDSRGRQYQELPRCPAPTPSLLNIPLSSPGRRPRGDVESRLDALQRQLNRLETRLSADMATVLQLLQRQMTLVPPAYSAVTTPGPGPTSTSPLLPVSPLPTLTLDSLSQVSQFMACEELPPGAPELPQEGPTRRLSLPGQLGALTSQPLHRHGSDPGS

Structure (SMILES)	hERG current change (%, negative = inhibition) at 10uM [%]
CC(C)CC(=O)Nc1nnc(SCC(=O)Nc2ccc3c(c2)OCO3)s1	0.521
O=C(NC1CCCCC1)c1ccccc1C(F)(F)F	6.33
CC(=O)c1ccc(NC(=O)CCc2nnc3ccc(N4CCCC4)nn23)cc1	8.71
CC(Cc1nnc(N)s1)c1ccccc1 (stereo not drawn)	8.05
Cc1ccc(Cn2nc(C)c3cc(C(=O)OCC(N)=O)sc32)cc1	7.64
COCC(C)n1c(SC(C)C(=O)NC2CCCCC2C)nc2ccccc2c1=O (stereo not drawn)	10.9
CCOC(=O)C1CCCN(S(=O)(=O)c2cccs2)C1 (stereo not drawn)	-8.05
Cc1ccc(-c2cc(C(=O)Nc3ccc(S(=O)(=O)Nc4nc(C)cc(C)n4)cc3)c3ccccc3n2)cc1	-1.49
O=C(CCC(=O)Nc1ccccc1Cl)N/N=C1\CCCc2ccccc21	40.8
CCC1CCCCN1C(=O)COc1ccc2c(c1)OCO2 (stereo not drawn)	12.6
COCCCNC(=S)Nc1ccc(CC(=O)O)cc1	9.09
COc1cc(NC(=S)Nc2ccc(Br)cc2Cl)c(OC)cc1Cl	8.27
CCn1c(=S)sc2c(=O)n(CC(=O)NCCCc3ccccc3)c(C)nc21	18.8
c1cn(CCCNc2ncnc3sc4c(c23)CCC4)cn1	-37.5
Cc1ccc(S(=O)(=O)N2CCN(C(=O)COC(=O)c3cccc(Cl)c3)CC2)c(C)c1	2.65
COc1cccc(CNCc2cccc(Br)c2)c1OC.O=C(O)C(=O)O	-0.446
CCN1C(C)=C(C)S/C1=C1\SC(=S)N(C2CCCCC2)C1=O	-1.22
Cc1ccc2[nH]c3c(c2c1)CN(C(=O)CN1CCN(c2ccccn2)CC1)CC3	-49.1
Cc1ccc(S(=O)(=O)N/N=C/c2ccc(OCC(=O)Nc3ccccc3Cl)cc2)cc1	1.73
COc1ccc(N2C(=O)/C(=C/c3ccc(OC)c(OC)c3)C(=O)NC2=S)cc1	14.7
COc1ccccc1N1CCN(Cc2ccco2)CC1.O=C(O)C(=O)O	-26.4
COc1cc(C)ccc1OCc1cc(C(=O)NCc2ccncc2)no1	3.47

Structure (SMILES)	hERG current change (%, negative = inhibition) at 10uM [%]
COc1ccc2cc(Br)ccc2c1CC(=O)NCC1CCCO1 (stereo not drawn)	-0.0184
CCc1ccc(C(=O)c2cnc3ccc(OC)cc3c2N2CCN(CC)CC2)cc1	-67.7
Cc1cccc(C(=O)N2CCc3ccccc3C2)c1[N+](=O)[O-]	-0.48
CCCCn1c2c(c(=N)c3c1CCC3)CCC2.I	-2.48
COc1ccc(C(=O)N2CCCCC2)cc1S(=O)(=O)Nc1cccc(C(=O)O)c1	6.94
Cc1ccc(SCC(=O)Nc2ccc(N3CCN(c4ccccc4)CC3)c(F)c2)cc1	10.3
COc1cc(/C=C/C(=O)OCC(=O)N(C)Cc2ccccc2)ccc1O	10
COc1ccc(-c2nc(CS(=O)(=O)CC(=O)NCCc3ccc(C)cc3)c(C)o2)cc1	3.98
Cc1sc2ncnc(Nc3ccccc3)c2c1C	2.79
Cc1nc2c(C(=O)NCCC3=CCCCC3)c[nH]n2c(=O)c1Cl	9.25
COc1ccc(OCc2nnc(SCC(=O)Nc3cccc(Cl)c3)o2)cc1	10.8
CC(Oc1cccc([N+](=O)[O-])c1)C(=O)NCCC1=CCCCC1 (stereo not drawn)	-25.8
O=C(c1ccc(F)cc1)N1CCC(C(=O)N2CCN(Cc3ccc4c(c3)OCO4)CC2)CC1	-10.5
Cc1cc(C(=O)CSc2nnnn2-c2ccc(O)cc2)c(C)n1Cc1ccc2c(c1)OCO2	-6.93
S=C(Nc1cccnc1)N1CCN(c2ccccc2Cl)CC1	0.024
CSc1nnc(CNC(=O)c2ccccc2)n1-c1cccc(C)c1	-6.07
Cc1ccc(NC(=O)COC(=O)/C=C/c2cccc(Cl)c2)cc1S(=O)(=O)N1CCOCC1	7.37
O=C(CCn1cnc2ccccc2c1=O)Nc1nc(-c2ccc(Br)cc2)cs1	11.3
O=C(COc1ncnc2c(Cl)cc(Cl)cc12)NCCC1=CCCCC1	12.4
CC1CC(=O)NN=C1c1ccc(N)c([N+](=O)[O-])c1 (stereo not drawn)	1.43
Cc1ccc2cc(C=C(C#N)C#N)c(Cl)nc2c1	-0.312
Cn1c(=O)c2c(nc(NCc3ccc4c(c3)OCO4)n2Cc2ccccc2F)n(C)c1=O	-8.84

Structure (SMILES)	hERG current change (%, negative = inhibition) at 10uM [%]
CCOC(=O)N1CCN(c2nnc(-c3ccc(C)cc3)c3ccccc23)CC1	-70.1
Cc1ccc(-c2nnc(SCC(=O)NC3CCS(=O)(=O)C3)nc2-c2ccc(C)cc2)cc1 (stereo not drawn)	7.47
Cc1[nH]c(C)c(S(=O)(=O)N2CCCCC2)c1C(=O)N1CCCC1	12
COc1cccc(CN2CCNC(=O)C2CC(=O)NC2Cc3ccccc3C2)c1 (stereo not drawn)	-20.8
COc1cc(C(=O)Nc2c(C)cc(C)cc2C)c(-n2cnnn2)cc1OC	-14.8
CCCC(C(=O)Nc1cc(S(=O)(=O)N2CCOCC2)ccc1OC)c1ccccc1 (stereo not drawn)	21.9
COc1ccc(-n2c(=O)c3c4c(sc3n3c(=S)[nH]nc23)CCCC4)cc1	8.97
COc1ccc(-c2noc(CSc3nc(N)cc(=O)[nH]3)n2)cc1	0.145
Cc1nc([N+](=O)[O-])c(Sc2nc3ccc([N+](=O)[O-])cc3[nH]2)n1Cc1ccccc1	-48
O=C1c2ccccc2C(=O)N1CCOc1cccc(Br)c1	15.9
CCc1ccc(CN(C(=O)c2cccs2)C2CCS(=O)(=O)C2)cc1 (stereo not drawn)	-39.4
CC(C)N1C(=O)NC2(c3ccccc3)N(C)C(=O)N(C)C12c1ccccc1 (stereo not drawn)	-6.16
CC(=O)Oc1ccc(C(=O)Nc2cccc(C(=O)NC(C)(C)C)c2)cc1	23.4
CCOC(=O)C1CCN(C(=O)Cc2ccc(OC)c(OC)c2)CC1	-1.71
COc1ccc(F)cc1C(=O)C1CCCN(C(=O)CCN2CCCCO2)C1 (stereo not drawn)	5.56
CC1CCc2[nH]c3ccc(C(=O)N(C)CC(=O)Nc4ccc(F)cc4)cc3c2C1 (stereo not drawn)	-2.52
Cc1ccccc1NC(=O)c1ccc(CN2CCc3ccccc3C2)cc1	-16.4
Cc1ccccc1Cn1c(=O)n(CC2CCC(C(=O)NCCc3ccccc3)CC2)c(=O)c2ccccc21 (stereo not drawn)	8.83
O=C(NCCc1ccccc1)C1CCN(S(=O)(=O)c2ccc(-c3nn[nH]n3)cc2)CC1	-18.7
CN1CCN(C(=O)c2ccc(CNS(=O)(=O)c3cccc(Cl)c3)cc2)CC1	-17.1
O=C(Cc1ccccc1[N+](=O)[O-])NC1CC1	11.3
O=C(OCc1ccccc1)/C(=C/c1ccc(Cl)cc1)NC(=O)c1ccccc1Cl	5.56

Structure (SMILES)	hERG current change (%, negative = inhibition) at 10uM [%]
O=C(NCCc1ccc(Cl)cc1)c1cc(S(=O)(=O)N2CCCCC2)c[nH]1	1.19
COC(=O)c1ccc2c(=O)n(CCCCCC(=O)NCc3ccccc3)c(=O)[nH]c2c1	-6.33
COc1ccc(CNC(=O)C2CSC(=O)C2)cc1 (stereo not drawn)	1.15
O=C1CC(C(=O)O)(c2ccccc2)c2cccc(F)c21 (stereo not drawn)	-2.44
CCc1cc(C(=O)NC2CCCN(Cc3ccccc3F)C2)n(C)n1 (stereo not drawn)	-11.6
Cc1cc(C)n2c(SCC(=O)Nc3ncc(C(F)(F)F)cc3Cl)nnc2n1	-17.1
NS(=O)(=O)c1ccc(N/N=C/c2ccccc2Br)cc1	30.4
O=C(CN1C(=O)c2ccccc2C1=O)NN1C(=O)c2ccccc2C1=O	1.18
N=c1c(S(=O)(=O)c2ccc(Cl)cc2)cc2c(=O)n3ccccc3nc2n1Cc1cccnc1	-35.5
Nc1nc(-c2ccc3ccccc3c2)cs1	1.6
Cc1ccc(S(=O)(=O)n2nc(C)cc2C)cc1	13.5
CCCCn1c(-c2ccco2)nc2ccccc2c1=O	-12.2
O=C(Nc1ccc(Cl)c(Cl)c1)OCc1cccnc1	19.7
NC12NC(=O)C3(O)C4C5CC(C6C5C3C61)C42 (stereo not drawn)	13.5
CC(c1ccccc1)N1CC(C(=O)N2CCN(c3ccc(F)cc3)CC2)CC1=O (stereo not drawn)	-65.3
COc1ccc(CCNC(=O)c2cc(-c3ccccn3)nc3ccccc23)cc1	-31
N#Cc1c(N2CCCC2)ccc(Br)c1Cl	9.09
Cc1cccc(NC(=O)C2CCN(C(=O)N3CCOc4ccccc43)CC2)c1C	3.61
O=C1C2C3C=CC(CO)(O3)C2C(=O)N1c1ccc(-c2ccccc2)cc1 (stereo not drawn)	-2.64
O=C(CSc1nnc(SCc2cccc3ccccc23)s1)N/N=C/c1c[nH]c2ccccc12	-6.02
CC(C)NC(=O)[C@H](CSCc1ccccc1)N1Cc2ccccc2C1=O	-40

Source: article PMC4336329 (PLoS ONE, 2015)
